Measurements taken from a collection of fitness landscapes (doi:10.1016/j.celrep.2020.107928).
The full ranking holds about 81,000 sequences; the median of “one-hybrid fitness for binding NBS DNA” is about -0.1, and the highest 2% start at about 0.36. This is one part of the list.

B1: Caulobacter ParB omega fusion; a variant is named by its letters at X, in order, B8GW30 (parent)
chain: MESVVVGEPGMSEGRRGLGRGLSALLGEVDAAPAQAPGEQLGGSREAPIEILQRNPDQPRRTFREEDLEDLSNSIREKGVLQPILVRPSPDTAGEYQIVAGERAWRAAQRAGLKTVPIMVRELDDLAVLEIGIIENVQRADLNVLEEALSYKVLMEKFERTQENIAQTIGKSXSHVANXMRLLXLPDEVQSYLVSGELTAXHARAIAAAADPVALAKQIIEGGLSVRETEALARKAPNLSAGKSKGGRPPRVKDTDTQALESDLSSVLGLDVSIDHRGSTGTLTITYATLEQLDDLCNRLTRGI

Variants of: B1
Assay: one-hybrid fitness for binding NBS DNA (the Noc-binding site; scaled: cognate 1, non-cognate 0); higher = stronger binding
Conditions: with NBS DNA site
Method in brief: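 The reporter was HIS3, with the binding site 19 bp from the promoter, in E. coli USO used for bacterial one-hybrid selection of Caulobacter ParB libraries with four specificity codons randomised. Growth was on M9 lacking histidine, with 0.1 mM IPTG and 5 mM 3-AT, for 48 hours at 37°C. Illumina sequencing covered plasmids before and after selection; three replicate libraries were pooled and variants with under 10 reads dropped. A fitness score is the log change in variant-to-wild-type read ratio, rescaled to the cognate and non-cognate references.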
WLLC was tested, and the “one-hybrid fitness for binding NBS DNA” value was ≤ 0.2.
In the case of YMSS, the “one-hybrid fitness for binding NBS DNA” value is reported as ≤ 0.2.
With DWLL the “one-hybrid fitness for binding NBS DNA” value was ≤ 0.2.
GPWN was tested, and the “one-hybrid fitness for binding NBS DNA” value was ≤ 0.2.
LFLG was tested, and the “one-hybrid fitness for binding NBS DNA” value was ≤ 0.2.
With RDYT the “one-hybrid fitness for binding NBS DNA” value was ≤ 0.2.
In the case of KHIG, the “one-hybrid fitness for binding NBS DNA” value is reported as ≤ 0.2.
RAAK was tested, and the “one-hybrid fitness for binding NBS DNA” value was ≤ 0.2.
For DWAG, the “one-hybrid fitness for binding NBS DNA” value was ≤ 0.2.
In the case of TRNR, the “one-hybrid fitness for binding NBS DNA” value is reported as 0.466.
In the case of YTRE, the “one-hybrid fitness for binding NBS DNA” value is reported as ≤ 0.2.
For LSRP, the “one-hybrid fitness for binding NBS DNA” value was ≤ 0.2.
For NRLY, the “one-hybrid fitness for binding NBS DNA” value was ≤ 0.2.
In the case of DNEC, the “one-hybrid fitness for binding NBS DNA” value is reported as ≤ 0.2.
HKVV was tested, and the “one-hybrid fitness for binding NBS DNA” value was ≤ 0.2.
WGNH was tested, and the “one-hybrid fitness for binding NBS DNA” value was ≤ 0.2.
With TPHE the “one-hybrid fitness for binding NBS DNA” value was ≤ 0.2.
In the case of QKRF, the “one-hybrid fitness for binding NBS DNA” value is reported as 0.258.
With TEQT the “one-hybrid fitness for binding NBS DNA” value was ≤ 0.2.
For LTCM, the “one-hybrid fitness for binding NBS DNA” value was ≤ 0.2.
In the case of AIKM, the “one-hybrid fitness for binding NBS DNA” value is reported as ≤ 0.2.
With LHNV the “one-hybrid fitness for binding NBS DNA” value was ≤ 0.2.
QNGI was tested, and the “one-hybrid fitness for binding NBS DNA” value was ≤ 0.2.
In the case of HHTD, the “one-hybrid fitness for binding NBS DNA” value is reported as ≤ 0.2.
In the case of RMTL, the “one-hybrid fitness for binding NBS DNA” value is reported as ≤ 0.2.
With RWCT the “one-hybrid fitness for binding NBS DNA” value was ≤ 0.2.
In the case of KTTC, the “one-hybrid fitness for binding NBS DNA” value is reported as ≤ 0.2.
HSQY was tested, and the “one-hybrid fitness for binding NBS DNA” value was ≤ 0.2.
For YSWC, the “one-hybrid fitness for binding NBS DNA” value was ≤ 0.2.
With EMLK the “one-hybrid fitness for binding NBS DNA” value was ≤ 0.2.
In the case of PTPK, the “one-hybrid fitness for binding NBS DNA” value is reported as ≤ 0.2.
In the case of SHQQ, the “one-hybrid fitness for binding NBS DNA” value is reported as ≤ 0.2.
For PYSK, the “one-hybrid fitness for binding NBS DNA” value was ≤ 0.2.
With FRVL the “one-hybrid fitness for binding NBS DNA” value was ≤ 0.2.
SMGI was tested, and the “one-hybrid fitness for binding NBS DNA” value was ≤ 0.2.
With NPGS the “one-hybrid fitness for binding NBS DNA” value was ≤ 0.2.
In the case of HMVI, the “one-hybrid fitness for binding NBS DNA” value is reported as ≤ 0.2.
YNKV was tested, and the “one-hybrid fitness for binding NBS DNA” value was ≤ 0.2.
TNPD was tested, and the “one-hybrid fitness for binding NBS DNA” value was ≤ 0.2.
For YNTT, the “one-hybrid fitness for binding NBS DNA” value was ≤ 0.2.
GGLV was tested, and the “one-hybrid fitness for binding NBS DNA” value was ≤ 0.2.
DTFC was tested, and the “one-hybrid fitness for binding NBS DNA” value was ≤ 0.2.
In the case of MFVT, the “one-hybrid fitness for binding NBS DNA” value is reported as ≤ 0.2.
In the case of AVYT, the “one-hybrid fitness for binding NBS DNA” value is reported as ≤ 0.2.
With YLAT the “one-hybrid fitness for binding NBS DNA” value was ≤ 0.2.
For MNPL, the “one-hybrid fitness for binding NBS DNA” value was ≤ 0.2.
For TWQS, the “one-hybrid fitness for binding NBS DNA” value was ≤ 0.2.
With HKGC the “one-hybrid fitness for binding NBS DNA” value was ≤ 0.2.
GNDV was tested, and the “one-hybrid fitness for binding NBS DNA” value was ≤ 0.2.
In the case of GANC, the “one-hybrid fitness for binding NBS DNA” value is reported as ≤ 0.2.
In the case of GLNP, the “one-hybrid fitness for binding NBS DNA” value is reported as ≤ 0.2.
For VHHN, the “one-hybrid fitness for binding NBS DNA” value was ≤ 0.2.
For PKKF, the “one-hybrid fitness for binding NBS DNA” value was ≤ 0.2.
With SPSF the “one-hybrid fitness for binding NBS DNA” value was ≤ 0.2.
For VNGK, the “one-hybrid fitness for binding NBS DNA” value was ≤ 0.2.
CYVS was tested, and the “one-hybrid fitness for binding NBS DNA” value was ≤ 0.2.
With KQMR the “one-hybrid fitness for binding NBS DNA” value was ≤ 0.2.
For AADR, the “one-hybrid fitness for binding NBS DNA” value was ≤ 0.2.
For MNDS, the “one-hybrid fitness for binding NBS DNA” value was ≤ 0.2.
PTRN was tested, and the “one-hybrid fitness for binding NBS DNA” value was ≤ 0.2.
In the case of NLSN, the “one-hybrid fitness for binding NBS DNA” value is reported as ≤ 0.2.
With PHIK the “one-hybrid fitness for binding NBS DNA” value was ≤ 0.2.
For KLGR, the “one-hybrid fitness for binding NBS DNA” value was ≤ 0.2.
MPGY was tested, and the “one-hybrid fitness for binding NBS DNA” value was ≤ 0.2.
With KHEG the “one-hybrid fitness for binding NBS DNA” value was ≤ 0.2.
ASFA was tested, and the “one-hybrid fitness for binding NBS DNA” value was ≤ 0.2.
With QSDR the “one-hybrid fitness for binding NBS DNA” value was 0.317.
With ADLV the “one-hybrid fitness for binding NBS DNA” value was ≤ 0.2.
KDMG was tested, and the “one-hybrid fitness for binding NBS DNA” value was ≤ 0.2.
In the case of LKRI, the “one-hybrid fitness for binding NBS DNA” value is reported as ≤ 0.2.
GYKL was tested, and the “one-hybrid fitness for binding NBS DNA” value was ≤ 0.2.
For NIKQ, the “one-hybrid fitness for binding NBS DNA” value was ≤ 0.2.
In the case of QLRL, the “one-hybrid fitness for binding NBS DNA” value is reported as ≤ 0.2.
With LWNR the “one-hybrid fitness for binding NBS DNA” value was ≤ 0.2.
KGAN was tested, and the “one-hybrid fitness for binding NBS DNA” value was ≤ 0.2.
With QLFM the “one-hybrid fitness for binding NBS DNA” value was ≤ 0.2.
In the case of TAWI, the “one-hybrid fitness for binding NBS DNA” value is reported as ≤ 0.2.
For KRRK, the “one-hybrid fitness for binding NBS DNA” value was 0.319.
With RFRD the “one-hybrid fitness for binding NBS DNA” value was ≤ 0.2.
SRGE was tested, and the “one-hybrid fitness for binding NBS DNA” value was ≤ 0.2.
With GAPT the “one-hybrid fitness for binding NBS DNA” value was ≤ 0.2.
For HRLK, the “one-hybrid fitness for binding NBS DNA” value was ≤ 0.2.
In the case of RNAW, the “one-hybrid fitness for binding NBS DNA” value is reported as ≤ 0.2.
YCAL was tested, and the “one-hybrid fitness for binding NBS DNA” value was ≤ 0.2.
In the case of PVGA, the “one-hybrid fitness for binding NBS DNA” value is reported as ≤ 0.2.
In the case of NTPW, the “one-hybrid fitness for binding NBS DNA” value is reported as ≤ 0.2.
For DQPR, the “one-hybrid fitness for binding NBS DNA” value was ≤ 0.2.
In the case of INPC, the “one-hybrid fitness for binding NBS DNA” value is reported as ≤ 0.2.
For GAKT, the “one-hybrid fitness for binding NBS DNA” value was ≤ 0.2.
In the case of EWQS, the “one-hybrid fitness for binding NBS DNA” value is reported as ≤ 0.2.
In the case of HIST, the “one-hybrid fitness for binding NBS DNA” value is reported as ≤ 0.2.
With FLAF the “one-hybrid fitness for binding NBS DNA” value was ≤ 0.2.
GIPM was tested, and the “one-hybrid fitness for binding NBS DNA” value was ≤ 0.2.
With HSNV the “one-hybrid fitness for binding NBS DNA” value was ≤ 0.2.
PFTK was tested, and the “one-hybrid fitness for binding NBS DNA” value was ≤ 0.2.
KANT was tested, and the “one-hybrid fitness for binding NBS DNA” value was ≤ 0.2.
In the case of NRSG, the “one-hybrid fitness for binding NBS DNA” value is reported as ≤ 0.2.
In the case of WTRT, the “one-hybrid fitness for binding NBS DNA” value is reported as ≤ 0.2.
In the case of IYNT, the “one-hybrid fitness for binding NBS DNA” value is reported as ≤ 0.2.
SFFI was tested, and the “one-hybrid fitness for binding NBS DNA” value was ≤ 0.2.
With RELP the “one-hybrid fitness for binding NBS DNA” value was ≤ 0.2.
With QARF the “one-hybrid fitness for binding NBS DNA” value was 0.266.
DPAS was tested, and the “one-hybrid fitness for binding NBS DNA” value was ≤ 0.2.
For AELR, the “one-hybrid fitness for binding NBS DNA” value was ≤ 0.2.
For CLHL, the “one-hybrid fitness for binding NBS DNA” value was ≤ 0.2.
DASI was tested, and the “one-hybrid fitness for binding NBS DNA” value was ≤ 0.2.
TTKQ was tested, and the “one-hybrid fitness for binding NBS DNA” value was ≤ 0.2.
For KSFF, the “one-hybrid fitness for binding NBS DNA” value was ≤ 0.2.
For GHWA, the “one-hybrid fitness for binding NBS DNA” value was ≤ 0.2.
In the case of RKNI, the “one-hybrid fitness for binding NBS DNA” value is reported as ≤ 0.2.
In the case of KGTR, the “one-hybrid fitness for binding NBS DNA” value is reported as ≤ 0.2.
With LALK the “one-hybrid fitness for binding NBS DNA” value was ≤ 0.2.
FTMY was tested, and the “one-hybrid fitness for binding NBS DNA” value was ≤ 0.2.
MTRI was tested, and the “one-hybrid fitness for binding NBS DNA” value was ≤ 0.2.
With PWPT the “one-hybrid fitness for binding NBS DNA” value was ≤ 0.2.
In the case of CRAD, the “one-hybrid fitness for binding NBS DNA” value is reported as ≤ 0.2.
For SVTH, the “one-hybrid fitness for binding NBS DNA” value was ≤ 0.2.
With VPHF the “one-hybrid fitness for binding NBS DNA” value was ≤ 0.2.
NHYR was tested, and the “one-hybrid fitness for binding NBS DNA” value was ≤ 0.2.
WGRL was tested, and the “one-hybrid fitness for binding NBS DNA” value was ≤ 0.2.
EITI was tested, and the “one-hybrid fitness for binding NBS DNA” value was ≤ 0.2.
With KSRR the “one-hybrid fitness for binding NBS DNA” value was 0.343.
For YATH, the “one-hybrid fitness for binding NBS DNA” value was ≤ 0.2.
With KHDS the “one-hybrid fitness for binding NBS DNA” value was ≤ 0.2.
With TSIH the “one-hybrid fitness for binding NBS DNA” value was ≤ 0.2.
For AMCN, the “one-hybrid fitness for binding NBS DNA” value was ≤ 0.2.
In the case of GCQR, the “one-hybrid fitness for binding NBS DNA” value is reported as ≤ 0.2.
For WPRS, the “one-hybrid fitness for binding NBS DNA” value was ≤ 0.2.
For IYFG, the “one-hybrid fitness for binding NBS DNA” value was ≤ 0.2.
With AAPE the “one-hybrid fitness for binding NBS DNA” value was ≤ 0.2.
With HQST the “one-hybrid fitness for binding NBS DNA” value was ≤ 0.2.
With RFNG the “one-hybrid fitness for binding NBS DNA” value was ≤ 0.2.
With ATNH the “one-hybrid fitness for binding NBS DNA” value was ≤ 0.2.
In the case of VDVV, the “one-hybrid fitness for binding NBS DNA” value is reported as ≤ 0.2.
In the case of GKAE, the “one-hybrid fitness for binding NBS DNA” value is reported as ≤ 0.2.
With THPC the “one-hybrid fitness for binding NBS DNA” value was ≤ 0.2.
With RCFP the “one-hybrid fitness for binding NBS DNA” value was ≤ 0.2.
In the case of KWEL, the “one-hybrid fitness for binding NBS DNA” value is reported as ≤ 0.2.
MKSN was tested, and the “one-hybrid fitness for binding NBS DNA” value was ≤ 0.2.
GNKY was tested, and the “one-hybrid fitness for binding NBS DNA” value was ≤ 0.2.
For VLIG, the “one-hybrid fitness for binding NBS DNA” value was ≤ 0.2.
With NVES the “one-hybrid fitness for binding NBS DNA” value was ≤ 0.2.
In the case of QHGS, the “one-hybrid fitness for binding NBS DNA” value is reported as 0.343.
DNRG was tested, and the “one-hybrid fitness for binding NBS DNA” value was ≤ 0.2.
For WPSS, the “one-hybrid fitness for binding NBS DNA” value was ≤ 0.2.
For SCRV, the “one-hybrid fitness for binding NBS DNA” value was ≤ 0.2.
With EVVE the “one-hybrid fitness for binding NBS DNA” value was ≤ 0.2.
For RWIC, the “one-hybrid fitness for binding NBS DNA” value was ≤ 0.2.
With ACVC the “one-hybrid fitness for binding NBS DNA” value was ≤ 0.2.
With QKNL the “one-hybrid fitness for binding NBS DNA” value was ≤ 0.2.
For AQRL, the “one-hybrid fitness for binding NBS DNA” value was ≤ 0.2.
For LGAN, the “one-hybrid fitness for binding NBS DNA” value was ≤ 0.2.
In the case of QFDF, the “one-hybrid fitness for binding NBS DNA” value is reported as ≤ 0.2.
